This is one part of the list.
What was measured:
Assay in all cases: glycan array binding signal (z-score within array); higher = stronger binding
Details in all cases: glycan notation: IUPAC condensed, linker removed
[1] = target: Gal(b1-4)GlcNAc(b1-3)Gal(b1-4)GlcNAc(b1-3)[Gal(b1-4)GlcNAc(b1-3)Gal(b1-4)GlcNAc(b1-6)]GalNAc
Summary of the method: (§1)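 The binding signal is a Z-score computed within each array and averaged over linkers. Arrays of the same protein sequence at different concentrations or buffers were also averaged together. Data originate from 3228 arrays in the Consortium for Functional Glycomics database, kept only where the protein sequence was available.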

[2] = target: Gal(b1-4)GlcNAc(b1-3)Gal(b1-4)GlcNAc(b1-6)[Gal(b1-3)]GalNAc
Summary of the method: as §1

[3] = target: Gal(b1-4)GlcNAc(b1-3)Gal(b1-4)[Fuc(a1-3)]GlcNAc(b1-3)Gal(b1-4)[Fuc(a1-3)]GlcNAc
Summary of the method: as §1

[4] = target: Gal(b1-4)GlcNAc(b1-3)GalNAc
Summary of the method: as §1

[5] = target: Gal(b1-4)GlcNAc(b1-3)[Fuc(a1-3)GlcNAc(b1-6)]Gal(b1-4)Glc
Summary of the method: as §1

[6] = target: Gal(b1-4)GlcNAc(b1-3)[Gal(b1-4)GlcNAc(b1-6)]Gal(b1-4)GlcNAc
Summary of the method: as §1

[7] = target: Gal(b1-4)GlcNAc(b1-3)[GlcNAc(b1-6)]Gal(b1-4)GlcNAc
Summary of the method: as §1

[8] = target: Gal(b1-4)GlcNAc(b1-6)Gal(b1-4)GlcNAc
Summary of the method: as §1

[9] = target: Gal(b1-4)GlcNAc(b1-6)GalNAc
Summary of the method: as §1

[10] = target: Gal(b1-4)GlcNAc(b1-6)[Gal(b1-3)]GalNAc
Summary of the method: as §1

[11] = target: Gal(b1-4)GlcNAc(b1-6)[Gal(b1-4)GlcNAc(b1-3)]GalNAc
Summary of the method: as §1

[12] = target: Gal(b1-4)GlcNAc6P
Summary of the method: as §1

[13] = target: Gal(b1-6)Gal
Summary of the method: as §1

[14] = target: Gal3S(b1-3)GalNAc
Summary of the method: as §1

[15] = target: Gal3S(b1-3)GlcNAc
Summary of the method: as §1

[16] = target: Gal3S(b1-3)[Fuc(a1-4)]GlcNAc
Summary of the method: as §1

[17] = target: Gal3S(b1-4)Glc
Summary of the method: as §1

[18] = target: Gal3S(b1-4)Glc6S
Summary of the method: as §1

[19] = target: Gal3S(b1-4)GlcNAc
Summary of the method: as §1

[20] = target: Gal3S(b1-4)[Fuc(a1-3)]Glc6S
Summary of the method: as §1

[21] = target: Gal3S(b1-4)[Fuc(a1-3)]GlcNAc
Summary of the method: as §1

[22] = target: Gal3S(b1-4)[Fuc(a1-3)]GlcNAc6S
Summary of the method: as §1

[23] = target: Gal3S4S(b1-4)GlcNAc
Summary of the method: as §1

[24] = target: Gal3S6S(b1-4)GlcNAc
Summary of the method: as §1

[25] = target: Gal3S6S(b1-4)GlcNAc6S
Summary of the method: as §1

[26] = target: Gal4S(b1-4)GlcNAc
Summary of the method: as §1

[27] = target: Gal4S6S(b1-4)GlcNAc
Summary of the method: as §1

[28] = target: Gal6P(b1-4)GlcNAc
Summary of the method: as §1

[29] = target: Gal6S(b1-3)GlcNAc
Summary of the method: as §1

[30] = target: Gal6S(b1-3)GlcNAc6S
Summary of the method: as §1

[31] = target: Gal6S(b1-4)Glc
Summary of the method: as §1

[32] = target: Gal6S(b1-4)Glc6S
Summary of the method: as §1

[33] = target: Gal6S(b1-4)GlcNAc
Summary of the method: as §1

[34] = target: Gal6S(b1-4)GlcNAc6S
Summary of the method: as §1

[35] = target: GalNAc(a1-3)Gal
Summary of the method: as §1

[36] = target: GalNAc(a1-3)GalNAc
Summary of the method: as §1

[37] = target: GalNAc(a1-3)GalNAc(b1-3)Gal(a1-4)Gal(b1-4)Glc
Summary of the method: as §1

[38] = target: GalNAc(a1-3)GalNAc(b1-3)Gal(a1-4)Gal(b1-4)GlcNAc
Summary of the method: as §1

[39] = target: GalNAc(b1-3)Gal
Summary of the method: as §1

[40] = target: GalNAc(b1-3)Gal(a1-4)Gal(b1-4)GlcNAc
Summary of the method: as §1

[41] = target: GalNAc(b1-3)Gal(a1-4)Gal(b1-4)GlcNAc(b1-3)Gal(b1-4)Glc
Summary of the method: as §1

[42] = target: GalNAc(b1-3)Gal(a1-6)Gal(b1-4)Glc
Summary of the method: as §1

[43] = target: GalNAc(b1-3)GalNAc
Summary of the method: as §1

[44] = target: GalNAc(b1-3)GlcNAc
Summary of the method: as §1

[45] = target: GalNAc(b1-4)Gal(b1-4)Glc
Summary of the method: as §1

B1: LBL-152 (Laetiporus bicolor), B0D650 (protein)
chain: MSNEYNPPLGIAFRLCGLASDRVLFSRVSPSPEVFHHPKSEVYPDQWFVAIPGSGQNAGCYAIKSKNTGKVLFSRMSPDPRVGHIDGDGKYPDNWFKFEAGSGKYAGYFRLRAVASDTVLVSRTSTGTDTQVINYPATSAKYDDQYFTILFDHHHHHH
In the case of B1, the “glycan array binding signal (z-score)” value [1] is reported as -0.14, the “glycan array binding signal (z-score)” value [2] is reported as -0.155 and the “glycan array binding signal (z-score)” value [3] is reported as -0.14. For the same binder, the “glycan array binding signal (z-score)” value [4] was -0.158, the “glycan array binding signal (z-score)” value [5] was -0.155 and the “glycan array binding signal (z-score)” value [6] was 0.119. For the same binder, the “glycan array binding signal (z-score)” value [7] was -0.14, the “glycan array binding signal (z-score)” value [8] was -0.159 and the “glycan array binding signal (z-score)” value [9] was -0.146. The “glycan array binding signal (z-score)” value [10] was -0.149, the “glycan array binding signal (z-score)” value [11] was -0.136 and the “glycan array binding signal (z-score)” value [12] was -0.158. The “glycan array binding signal (z-score)” value [13] was -0.154, the “glycan array binding signal (z-score)” value [14] was -0.143 and the “glycan array binding signal (z-score)” value [15] was -0.141. The “glycan array binding signal (z-score)” value [16] was -0.155, the “glycan array binding signal (z-score)” value [17] was -0.139 and the “glycan array binding signal (z-score)” value [18] was -0.142. The “glycan array binding signal (z-score)” value [19] was -0.141, the “glycan array binding signal (z-score)” value [20] was -0.128 and the “glycan array binding signal (z-score)” value [21] was -0.152. The “glycan array binding signal (z-score)” value [22] was -0.148, the “glycan array binding signal (z-score)” value [23] was -0.148 and the “glycan array binding signal (z-score)” value [24] was -0.133. The “glycan array binding signal (z-score)” value [25] was -0.135, the “glycan array binding signal (z-score)” value [26] was -0.139 and the “glycan array binding signal (z-score)” value [27] was -0.152. For the same binder, the “glycan array binding signal (z-score)” value [28] was -0.155, the “glycan array binding signal (z-score)” value [29] was -0.15 and the “glycan array binding signal (z-score)” value [30] was -0.154. For the same binder, the “glycan array binding signal (z-score)” value [31] was -0.141, the “glycan array binding signal (z-score)” value [32] was -0.153 and the “glycan array binding signal (z-score)” value [33] was -0.151. The “glycan array binding signal (z-score)” value [34] was -0.148, the “glycan array binding signal (z-score)” value [35] was -0.152 and the “glycan array binding signal (z-score)” value [36] was -0.148. For the same binder, the “glycan array binding signal (z-score)” value [37] was -0.158, the “glycan array binding signal (z-score)” value [38] was -0.157 and the “glycan array binding signal (z-score)” value [39] was -0.157. For the same binder, the “glycan array binding signal (z-score)” value [40] was -0.138, the “glycan array binding signal (z-score)” value [41] was -0.142 and the “glycan array binding signal (z-score)” value [42] was -0.159. The “glycan array binding signal (z-score)” value [43] was -0.146, the “glycan array binding signal (z-score)” value [44] was -0.16 and the “glycan array binding signal (z-score)” value [45] was -0.154.
